According to PMC4336329 (PLoS ONE, 2015):
Among all 310,000 compounds or so, about 2,200 (0.71%) showed an effect of 50% or more. Effects have a minus sign here. This is one part of the list.

Biological target: human ether-à-go-go-related gene (hERG) potassium channel (human, UniProt Q12809)
Test: primary screen, population patch clamp on CHO cells stably expressing hERG

Chain of human ether-à-go-go-related gene (hERG) potassium channel (Q12809 whole entry, looked up): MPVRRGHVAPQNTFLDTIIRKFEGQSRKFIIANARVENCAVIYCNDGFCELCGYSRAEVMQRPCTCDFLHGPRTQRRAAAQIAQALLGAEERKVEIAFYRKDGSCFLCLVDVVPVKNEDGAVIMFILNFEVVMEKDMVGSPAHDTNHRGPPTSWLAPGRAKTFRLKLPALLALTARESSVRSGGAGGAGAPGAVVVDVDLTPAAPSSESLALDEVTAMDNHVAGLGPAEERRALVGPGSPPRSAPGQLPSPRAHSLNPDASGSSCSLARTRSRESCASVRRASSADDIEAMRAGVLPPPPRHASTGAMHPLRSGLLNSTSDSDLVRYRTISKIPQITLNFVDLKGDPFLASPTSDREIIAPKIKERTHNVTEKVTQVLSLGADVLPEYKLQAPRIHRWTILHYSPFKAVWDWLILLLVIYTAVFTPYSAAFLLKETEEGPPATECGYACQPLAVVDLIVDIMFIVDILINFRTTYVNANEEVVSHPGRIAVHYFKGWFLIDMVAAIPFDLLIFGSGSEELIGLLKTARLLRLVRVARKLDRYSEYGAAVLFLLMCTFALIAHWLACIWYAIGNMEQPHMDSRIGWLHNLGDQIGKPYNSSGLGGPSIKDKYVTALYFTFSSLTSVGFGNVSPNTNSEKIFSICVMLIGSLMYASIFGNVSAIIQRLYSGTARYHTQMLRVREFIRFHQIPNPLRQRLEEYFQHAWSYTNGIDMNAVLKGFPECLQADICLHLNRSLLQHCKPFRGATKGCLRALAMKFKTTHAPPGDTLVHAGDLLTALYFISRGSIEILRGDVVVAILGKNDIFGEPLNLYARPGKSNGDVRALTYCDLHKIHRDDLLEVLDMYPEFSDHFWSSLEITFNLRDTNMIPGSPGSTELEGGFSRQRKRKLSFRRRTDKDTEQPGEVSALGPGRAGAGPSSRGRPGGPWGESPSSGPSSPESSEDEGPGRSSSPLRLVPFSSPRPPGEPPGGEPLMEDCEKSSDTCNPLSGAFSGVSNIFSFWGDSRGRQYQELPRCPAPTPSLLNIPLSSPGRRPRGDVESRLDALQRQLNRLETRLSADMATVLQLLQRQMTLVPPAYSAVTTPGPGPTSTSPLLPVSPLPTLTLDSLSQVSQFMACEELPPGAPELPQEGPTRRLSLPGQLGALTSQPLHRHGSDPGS

Compound	hERG current change (%, negative = inhibition) at 1uM
CCOc1ccc(S(=O)(=O)N2CCCC(C(=O)NCc3ccccn3)C2)cc1 (stereo not shown)	10%
Cc1ccc(C)c(N2CCN(C(=O)c3ccc(Cn4c(=S)[nH]c5ccc(N6CCOCC6)cc5c4=O)cc3)CC2)c1	-5.12%
O=C(OCCOCn1cc(Br)c(=O)[nH]c1=O)c1ccccc1	12.4%
O=c1[nH]c(O)c(C=Nc2ccccc2Sc2ccccc2)c(=O)[nH]1	10.6%
Cc1cccc(C(=O)N2CCN(c3ncnc4c3cnn4-c3ccccc3)CC2)c1	-6.01%
CCCCOc1cccc(/C=C(\C#N)C(=O)NC2CC2)c1	5.3%
COc1ccc(OCC(=O)NC(=S)Nc2ccc(S(=O)(=O)Nc3cc(C)on3)cc2)cc1	7.55%
Cc1ccc(NC(=O)CCNC(=O)Cn2ccc3ccccc3c2=O)cc1F	18.7%
COC(=O)[C@H](C)NC(=O)Nc1ccccc1C(F)(F)F	7.72%
COC(=O)c1ccc(CSc2nc3ccccc3c(=O)n2CC(C)C)o1	-1.69%
CC1CCN(C2=NN3C(=N)/C(=C\c4ccc(OC(=O)c5ccco5)cc4)C(=O)N=C3S2)CC1	9.23%
CC(C)Oc1ccc(/C(O)=C2/C(=O)C(=O)N(CCN(C)C)C2c2cccs2)cc1 (stereo not shown)	4.41%
O=NN1CCCCC1	9.3%
CN(C(=O)c1ccncc1)c1nnc(-c2cccnc2)s1	12.8%
CC#CCN1C(=O)N[C@@H](c2ccccc2)C(C(=O)OC)=C1C	14.7%
COc1ccc(NC(=O)CSc2ccc(-c3cccs3)nn2)c(OC)c1	9.11%
CCOC(=O)C(=CN=C(N)Nc1nc2ccccc2o1)C(=O)OCC	14.6%
O=C(NC1CC1)C1=C[C@H](c2c[nH]c3ccccc23)C[C@H](OCc2ccc(CO)cc2)O1	12.4%
CC(C)c1ccc(C2NC(=S)NC3=C2C(=O)CCC3)cc1 (stereo not shown)	8.94%
CCn1cc(Cl)c(C(=O)Nc2ccc3c(c2)OCCO3)n1	-13.4%
O=c1c2ccccc2nc(-c2ccc(Br)cc2)n1Cc1ccccc1	0.689%
CCOc1ccc(Oc2c(/C=N/NC(=O)C3CC3)c(C)nn2-c2ccccc2)cc1	9.94%
CC(C)(C)n1nnnc1C(c1cccc(C#N)c1)N1CCC(Cc2ccccc2)CC1 (stereo not shown)	5.25%
CC(=O)N1c2ccc(S(=O)(=O)N3CCCCC3)cc2CC1C (stereo not shown)	11.4%
COc1cc2c(cc1OC)C(c1cccs1)N(C(=O)c1ccncc1)CC2 (stereo not shown)	1.08%
Cc1ccc(-n2c(C)cc(/C=C3\NC(=O)NC3=O)c2C)c(C)c1	10.4%
Cn1c(CN2CCOCC2)c(C#N)c2ccccc21	5.66%
COc1ccc(-c2cn[nH]c2-c2ccc(OCc3ccccc3)cc2O)cc1OC	13.5%

Compound	hERG current change (%, negative = inhibition) at 1uM
Cc1cc(C)nc(NS(=O)(=O)c2ccc(NC(=O)c3ccccc3[N+](=O)[O-])cc2)n1	10.6%
CCC(C)[C@H](NC(=O)NCc1cccc(OC)c1)C(=O)O (stereo partly shown)	4.23%
COc1ccc(NC(=O)c2cccc(NC(=O)C(C)C)c2)c([N+](=O)[O-])c1	10.6%
O=C(CN1C(=O)NC(c2ccccc2)(c2ccccc2)C1=O)NCc1ccccc1	-8.3%
Cc1[nH]nc2c1[C@@H](c1ccccc1[N+](=O)[O-])C(C#N)=C(N)O2	10.8%
CCC(=O)Nc1ccc2oc(-c3cccc(C)c3)nc2c1	-2.52%
Cc1ccc(C(=O)C2CCN(C(=S)NCC3CCCO3)CC2)cc1 (stereo not shown)	17.4%
NS(=O)(=O)c1ccc(NC(=O)COC(=O)c2ccc(Cl)cc2[N+](=O)[O-])cc1	9.62%
Cc1ccc(S(=O)(=O)N(CC(=O)N2CCC(C)CC2)c2ccccc2)cc1	8.52%
O=C(c1cc2c(s1)CCCC2)n1cccn1	0.571%
CCCCOc1ccc(Cl)cc1CSc1nncn1N	9.02%
Cc1c(NC(=S)NC(=O)c2ccco2)c(=O)n(-c2ccccc2)n1C	9.63%
O=c1[nH]cnc2ncc(-c3ccc(O)cc3)nc12	8.88%
Cc1nc(SCC(=O)Nc2c(C)n(C)n(-c3ccccc3)c2=O)[nH]c(=O)c1C	8.86%
COc1ccc(C(=O)NC(=S)Nc2cccnc2)cc1Cl	1.37%
CCOC(=O)c1cccc(NC(=O)c2cncc(Br)c2)c1	4.47%
Cc1ccc(C)c(C(C)NC(=O)Cc2cccs2)c1 (stereo not shown)	15.1%
CCc1ccc(NC(=O)C2CCCN2S(=O)(=O)c2ccc3c(c2)n(C)c(=O)c(=O)n3C)cc1 (stereo not shown)	-8.19%
COc1ccc(-n2nc(C(=O)NCC(=O)N3CCN(c4ccccn4)CC3)c3ccccc3c2=O)cc1OC	6.89%
C=CCn1c(CSCc2ccc(C)cc2)nnc1SCC(=O)NCc1ccccc1	-4.88%
O=C(Cc1ccc([N+](=O)[O-])cc1)N/N=C/c1ccc([N+](=O)[O-])o1	-17.3%
CC1(C)C(=O)NCCN1C(=O)CSc1nccc(-c2ccc(Br)cc2)n1	0.619%
CN(C)Cc1nc2ccccc2c(=O)n1CC(=O)Nc1cccc(S(=O)(=O)N2CCOCC2)c1	1.05%
O=C(NC1CC1)C1CCN(C(=O)c2ccc(Cl)cc2Cl)CC1	12.9%
COc1ccc(C(=O)Oc2ccc(=O)n(-c3ccccc3)n2)cc1	11.1%
CCOC(=O)N1CCN(C(=O)c2cccc(N3C(=O)NC4CC3(C)Oc3ccc(Cl)cc34)c2)CC1 (stereo not shown)	13.3%
O=C(COc1ccc(Cl)cc1)N1CCN(Cc2ccc3c(c2)OCO3)CC1	-6.58%
